System: seasonal allergic rhinitis patients
Experiment: Double-blinded, randomized clinical trials in seasonal allergic rhinitis patients

Clc1ccc2c(c1)CCc1cccnc1C2=C1CCNCC1 [Desloratadine, desloratadine]
Total symptom scores (5 mg once daily, adult and adolescent seasonal allergic rhinitis patients): significantly reduced
AM NOW total symptom score (24 hours after dose, before next day dose, entire dosage range): Statistically significant (p<0.05) reductions were maintained for the full 24 hour dosing interval
Differences in effectiveness across subgroups defined by gender, age, or race (entire dosage range): no significant differences
